# Data: PubChem BioAssay AID1460 (National Center for Advancing Translational Sciences (NCATS), 2008)
# The whole screen tested about 270,000 compounds, of which about 5,800 (2.1%) were called active. The shares of active, inactive and inconclusive entries below differ from those in the screen. Calls come from the whole dose curve; as a rule, active = well fitted inhibition curve with a large enough effect; inconclusive = small, poorly fitted or top-dose-only effect; inactive = flat fitted curve, though single readings scatter. Potencies beside an inconclusive call are fits to weak or partial responses and may not hold up.
# Biological target: Microtubule-associated protein tau (Homo sapiens) (UniProt P10636)
# Chain of UniProt P10636 (P10636 whole entry, looked up): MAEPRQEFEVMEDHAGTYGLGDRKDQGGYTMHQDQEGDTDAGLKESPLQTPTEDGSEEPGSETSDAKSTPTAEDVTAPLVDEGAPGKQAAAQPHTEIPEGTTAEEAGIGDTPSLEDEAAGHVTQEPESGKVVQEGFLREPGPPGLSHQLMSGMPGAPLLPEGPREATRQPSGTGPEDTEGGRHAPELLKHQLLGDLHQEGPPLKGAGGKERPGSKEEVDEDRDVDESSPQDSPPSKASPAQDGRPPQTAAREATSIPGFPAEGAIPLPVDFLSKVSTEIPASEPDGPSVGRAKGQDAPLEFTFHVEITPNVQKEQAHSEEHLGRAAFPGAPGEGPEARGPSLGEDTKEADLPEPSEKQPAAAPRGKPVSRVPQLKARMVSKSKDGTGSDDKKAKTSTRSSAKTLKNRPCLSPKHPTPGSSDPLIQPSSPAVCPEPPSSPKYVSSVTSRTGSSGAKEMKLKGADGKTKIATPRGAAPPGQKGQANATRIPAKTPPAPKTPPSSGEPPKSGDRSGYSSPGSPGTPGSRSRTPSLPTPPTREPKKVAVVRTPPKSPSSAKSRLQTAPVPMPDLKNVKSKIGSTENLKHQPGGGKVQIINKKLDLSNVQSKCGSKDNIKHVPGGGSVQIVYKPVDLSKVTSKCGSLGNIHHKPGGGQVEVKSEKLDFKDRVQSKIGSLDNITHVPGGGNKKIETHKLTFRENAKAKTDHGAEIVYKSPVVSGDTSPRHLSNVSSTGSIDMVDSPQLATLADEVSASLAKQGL
# Experiment: qHTS for Inhibitors of Tau Fibril Formation, Thioflavin T Binding; note: nearly all actives have a fitted effect of over 55% in size
# Conditions: recombinant tau K18 P301L, heparin-induced fibrillization, ThT fluorescence; series mostly up to 57.4 µM
# How it was run: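 Fibril formation assay: tau K18 P301L at 15 uM with trace Alexa 594 label, heparin inducer 20 uM, pH 7 sodium acetate buffer, 37 C for 6 hr; endpoint ThT signal.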
# Potency is the fitted concentration of half-maximal effect; tags give direction and shape of the fitted curve.
row,SMILES,Potency
1,COc1cc(NC(=O)c2ccccc2F)c(OC)cc1NC(=O)CN1CCOCC1,inactive
2,CCCSCCCNC(=O)C1CCN(C(=O)c2cc3sccc3n2C)CC1,inactive
3,CCOC(=O)C1=C(CBr)NC(=O)NC1C (stereo unspecified),inactive
4,Cc1ccc(-n2cnc3cc(NCc4cccs4)ccc32)cc1,"inconclusive: 14.1 µM [inhibitor, partial curve]"
5,FC(F)(F)c1cccc(NC(=S)NNC(=S)Nc2cccc(C(F)(F)F)c2)c1,active: 28.2 µM
6,Cc1cccc(OCc2nnc(SCC(=O)Nc3ccc(C)cc3C)o2)c1,inactive
7,Cc1ccccc1Cn1c(SCc2ccc(C(=O)NCc3cccs3)cc2)nc2ccncc21,inactive
8,COc1ccc(S(=O)(=O)N(Cc2nc(-c3cccc(C)c3)no2)C2CCCCC2)cc1,inactive
9,CCn1c2ccccc2c2cc(NC(=O)CC(C)=O)ccc21,"inconclusive: 15.8 µM [inhibitor, partial curve, poor fit]"
10,CCOC(=O)CN1C(=O)S/C(=C/c2ccc(N3CCCCC3)o2)C1=O,"inconclusive: 28.2 µM [inhibitor, single point]"
11,CCNC(=O)CC1C(=O)N(c2ccccc2)C(=O)N1Cc1ccc(F)cc1 (stereo unspecified),inactive
12,O=C(Nc1ccc(N2CCN(Cc3ccccc3)CC2)cc1)c1cccnc1,"inconclusive: 17.8 µM [inhibitor, partial curve]"
13,Cc1ccc(/C=C/C(=O)Nc2nn[nH]n2)o1,"inconclusive: 39.8 µM [inhibitor, single point]"
14,CCN(CC)c1ccc(CNC23CN4CN(CN(C4)C2)C3)cc1,"inconclusive: 17.8 µM [inhibitor, partial curve]"
15,O=C(CCSCCC(=O)Nc1ccccc1F)Nc1ccccc1F,"inconclusive: 12.6 µM [inhibitor, partial curve]"
16,O=C(CN1CCN(Cc2ccccc2Cl)C1=O)NCc1ccccc1Cl,inactive
17,CCOc1ccc2c(c1)C(=O)c1cc(OCC(=O)O)ccc1-2,active: 11.2 µM
18,CCC(=O)N(CCc1ccc(S(N)(=O)=O)cc1)C1CC(=O)N(c2ccc(OC)cc2)C1=O (stereo unspecified),"inconclusive: 39.8 µM [inhibitor, single point]"
19,Cc1c2cnn(CC(=O)NCc3ccccc3)c(=O)c2c(C)n1Cc1cccc(Cl)c1,"inconclusive: 17.8 µM [inhibitor, single point]"
20,CCOc1cc(C(=O)Nc2ccc3c(c2)OCO3)ccc1OC(F)F,"inconclusive: 35.5 µM [inhibitor, partial curve]"
21,N#Cc1ccc(CSC2=NCCN2)cc1,"inconclusive: 22.4 µM [inhibitor, single point]"
22,CC1C/C(=N\NC(=O)c2cccnc2)CC(C)(C)C1 (stereo unspecified),inactive
23,O=C(N/N=C/c1cnc2ccccc2n1)c1cccc(F)c1,"inconclusive: 17.8 µM [inhibitor, partial curve]"

row,SMILES,Potency
1,Cc1cc(/C([O-])=C(/C(=S)Nc2ccc(F)cc2)[n+]2ccccc2)c(C)n1Cc1ccccc1Cl,"inconclusive: 14.1 µM [inhibitor, partial curve]"
2,Cc1cc(C)n2c(SC/C(O)=C(\C#N)c3nc4ccccc4[nH]3)nnc2n1,"inconclusive: 31.6 µM [inhibitor, single point]"
3,CCn1c2ccccc2c2cc(NC(=O)CSc3nnc(-c4ccccc4OC)n3N)ccc21,"inconclusive: 12.6 µM [inhibitor, partial curve]"
4,COC(=O)Nc1nnc(Cc2ccc(OC)cc2)s1,"inconclusive: 20 µM [inhibitor, single point]"
5,CCOC(=O)c1sc(NC(=O)CSc2nc(C)cc(-c3ccccc3)n2)c(C#N)c1C,active: 35.5 µM
6,COc1cc(C2Nc3ccc4ncccc4c3C3=C2C(=O)CC(C)(C)C3)cc(OC)c1O (stereo unspecified),"inconclusive: 20 µM [inhibitor, single point]"
7,N#CC1=C(S)N(c2ccccc2)C(c2cccs2)NC1=O (stereo unspecified),"inconclusive: 39.8 µM [inhibitor, single point]"
8,CCc1ccc(CNC(=O)CCc2c(C)nn(-c3ccc(N4CCCCC4)nn3)c2C)cc1,"inconclusive: 10 µM [inhibitor, partial curve, poor fit]"
9,O=C(NCc1ccccc1)c1nnc(Cc2cccc(F)c2)o1,inactive
10,CN1Cc2sc(NC(=S)NC(=O)c3ccccc3)c(C#N)c2CC1(C)C,"inconclusive: 25.1 µM [inhibitor, partial curve]"
11,O=C(NCC(c1ccc2c(c1)OCO2)N1CCOCC1)c1ccccc1F (stereo unspecified),inactive
12,O=C(Cc1ccc(Br)cc1)OCC(=O)c1ccc2c(c1)OCCO2,"inconclusive: 25.1 µM [inhibitor, partial curve, poor fit]"
13,COc1ccc(OCC(O)Cn2c(Nc3ccccc3)nc3c2c(=O)n(C)c(=O)n3C)cc1 (stereo unspecified),inactive
14,c1cnc(N2CCN(c3nc4ccccc4n4cnnc34)CC2)nc1,"inconclusive: 5.01 µM [inhibitor, full curve, poor fit]"
15,COc1ccc(C2c3cccn3CCN2S(=O)(=O)c2ccccc2[N+](=O)[O-])cc1OC (stereo unspecified),"inconclusive: 28.2 µM [inhibitor, single point]"
16,COc1cc(/C=C2\SC(=O)N(c3ccc(Cl)cc3)C2=O)cc([N+](=O)[O-])c1O,active: 17.8 µM
17,CCOc1ccc(C(=O)CC(NCc2cccs2)C(=O)O)cc1 (stereo unspecified),"inconclusive: 6.31 µM [inhibitor, partial curve]"
18,Cc1ccc(S(=O)(=O)N2CCN(CC(=O)NC3CCCc4ccccc43)CC2)c(C)c1 (stereo unspecified),inactive
19,O=C(N/N=C/c1nn(-c2ccccc2)cc1-c1ccccc1)c1ccncc1,inactive
20,CC(C)CC(=O)NC(NC(=S)Nc1sc2c(c1C#N)CCCC2)C(Cl)(Cl)Cl (stereo unspecified),"inconclusive: 4.47 µM [inhibitor, partial curve]"
21,COc1ccc(NC(=S)Nc2ccc(Oc3ccccc3)cc2)cc1,inactive
22,CC(=O)N1CCC2(CC1)C/C(=N\NC(=S)Nc1ccc(C)cc1)c1cc(O)ccc1O2,"inconclusive: 14.1 µM [inhibitor, partial curve, poor fit]"
23,CCOc1ccc(NC(=O)Cc2coc3ccc(C)cc23)cc1,"inconclusive: 22.4 µM [inhibitor, partial curve, poor fit]"
